Patent US11178870B2 (priority 2017, dated 2021)

What was measured:
[1] = system: Phytophthora infestans; type: in vivo; settings: Table 7, Test F
[2] = system: Colletotrichum orbiculare; settings: 250 ppm sprayed (2.5 ml/pot) before inoculation; assessed 6 to 10 days after inoculation
[3] = system: Magnaporthe grisea; type: in vivo; settings: Table 7, Test A

Compound | control value, Test F (late blight on tomato) [1] | control value, Test H (anthracnose on cucumber) [2] | control value, Test A (blast on rice) [3]
CCOc1cc(F)c(-c2c(-n3cc(F)cn3)cc(Br)c(=O)n2CC)c(F)c1 [Compound 317] | L (L shows the control value of 50% or less) | H (H shows the control value more than 50%) | 
CCn1c(-c2c(F)cccc2F)c(-n2cc(F)cn2)ccc1=O [Compound 318] | H (H shows the control value more than 50%) | H (H shows the control value more than 50%) | L (L shows the control value of 50% or less)
CCn1c(-c2ccc(F)cc2Cl)c(-n2cc(C)cn2)ccc1=O [Compound 334] | L (L shows the control value of 50% or less) | H (H shows the control value more than 50%) | H (H shows the control value more than 50%)
CCn1c(-c2ccc(F)cc2Br)c(-n2cc(C)cn2)cc(Br)c1=O [Compound 332] | L (L shows the control value of 50% or less) | H (H shows the control value more than 50%) | H (H shows the control value more than 50%)
